{"source": "the supplement of paper PMC3334620", "note": "Over roughly 33,000 sequences, “E-score (-0.5 to 0.5)” has its median near -0.035; the highest 2% begin near 0.35. Some of the results follow.", "data": [{"molecular_target": "T1, Pdr3 (UniProt P33200)", "T1 sequence": "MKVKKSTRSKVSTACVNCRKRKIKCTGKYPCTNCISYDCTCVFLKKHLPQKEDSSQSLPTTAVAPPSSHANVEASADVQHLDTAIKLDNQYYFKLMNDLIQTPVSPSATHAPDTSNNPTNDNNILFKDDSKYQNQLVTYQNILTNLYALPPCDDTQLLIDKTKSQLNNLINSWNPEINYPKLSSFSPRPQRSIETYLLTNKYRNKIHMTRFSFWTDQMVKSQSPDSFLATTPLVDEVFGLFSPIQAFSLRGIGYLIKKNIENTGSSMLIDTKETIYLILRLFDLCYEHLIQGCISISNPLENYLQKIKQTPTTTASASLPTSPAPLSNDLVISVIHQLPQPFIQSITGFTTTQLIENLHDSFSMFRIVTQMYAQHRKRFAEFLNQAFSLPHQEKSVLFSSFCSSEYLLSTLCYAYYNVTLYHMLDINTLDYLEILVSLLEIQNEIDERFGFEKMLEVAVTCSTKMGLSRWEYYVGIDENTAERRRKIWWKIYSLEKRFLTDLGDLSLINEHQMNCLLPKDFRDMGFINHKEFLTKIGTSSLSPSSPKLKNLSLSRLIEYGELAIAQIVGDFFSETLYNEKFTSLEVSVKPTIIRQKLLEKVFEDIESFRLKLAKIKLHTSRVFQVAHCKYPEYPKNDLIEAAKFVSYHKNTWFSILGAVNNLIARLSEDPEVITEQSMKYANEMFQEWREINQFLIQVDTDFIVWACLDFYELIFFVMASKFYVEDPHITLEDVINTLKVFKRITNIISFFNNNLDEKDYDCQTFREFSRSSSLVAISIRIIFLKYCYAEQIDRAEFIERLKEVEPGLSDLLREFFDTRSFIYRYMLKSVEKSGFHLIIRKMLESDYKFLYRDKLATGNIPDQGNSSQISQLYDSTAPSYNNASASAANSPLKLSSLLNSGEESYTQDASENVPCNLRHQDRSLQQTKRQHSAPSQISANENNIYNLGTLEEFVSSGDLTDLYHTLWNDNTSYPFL", "experiment": "PBM E-score (8-mer binding enrichment) (E-score (-0.5 to 0.5)); higher = stronger / more preferred TF binding; most listed sequences are background and not binding sites", "conditions": "protein concentration: 200 nM; construct: GST-full length", "procedure,_shortened": "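PURExpress in vitro transcription/translation supplied GST-tagged yeast transcription factors, either full-length or DNA-binding domain. Applied at about 100-200 nM to universal all-10-mer Agilent arrays double-stranded by primer extension, the bound protein was detected with fluorescent anti-GST. E-scores, modified Wilcoxon-Mann-Whitney statistics, were given by the Universal PBM Analysis Suite to ungapped eight-base words pooled with their reverse complements after masliner normalisation.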", "values": [{"sequence": "AAACCACG", "PBM E-score": 0.00715}, {"sequence": "CCCGAGAC", "PBM E-score": 0.282}, {"sequence": "ACCTGCAC", "PBM E-score": -0.0228}, {"sequence": "CATATCGC", "PBM E-score": 0.108}, {"sequence": "GGGGGAAC", "PBM E-score": -0.165}, {"sequence": "TACAGGCA", "PBM E-score": -0.134}, {"sequence": "GTGTACAC", "PBM E-score": -0.23}, {"sequence": "CGTGTTAC", "PBM E-score": -0.0684}, {"sequence": "AGGGCATA", "PBM E-score": -0.105}, {"sequence": "GTGAGTAA", "PBM E-score": -0.0981}, {"sequence": "ATTAAATC", "PBM E-score": 0.152}, {"sequence": "GTATAATA", "PBM E-score": 0.174}, {"sequence": "ATTGATTA", "PBM E-score": 0.167}, {"sequence": "ACGTCGCC", "PBM E-score": -0.2}, {"sequence": "GTCCTAAA", "PBM E-score": 0.0163}, {"sequence": "ACCGGGGG", "PBM E-score": 0.0642}, {"sequence": "ACACGCTA", "PBM E-score": -0.0503}, {"sequence": "GCGACTTA", "PBM E-score": -0.101}, {"sequence": "AGTCATGA", "PBM E-score": 0.053}, {"sequence": "CTCCGTAC", "PBM E-score": 0.162}, {"sequence": "CGATAAAG", "PBM E-score": -0.147}, {"sequence": "GACGTAGA", "PBM E-score": -0.283}, {"sequence": "CAATGTAG", "PBM E-score": -0.0561}, {"sequence": "AGGTCACC", "PBM E-score": -0.183}, {"sequence": "AGCCAGAG", "PBM E-score": -0.107}, {"sequence": "AGATCATG", "PBM E-score": -0.148}, {"sequence": "ACGCCGGG", "PBM E-score": 0.251}, {"sequence": "ACCCAGCT", "PBM E-score": -0.0142}, {"sequence": "CCTGTCTC", "PBM E-score": -0.0319}, {"sequence": "AAGTGCAC", "PBM E-score": 0.0238}, {"sequence": "AATAATAC", "PBM E-score": 0.032}, {"sequence": "CAGTACGA", "PBM E-score": -0.116}, {"sequence": "CTAGATTA", "PBM E-score": -0.108}, {"sequence": "ACCGAAAC", "PBM E-score": 0.147}, {"sequence": "TCCAACGA", "PBM E-score": -0.242}, {"sequence": "CTTAGGGC", "PBM E-score": -0.133}, {"sequence": "ATTGTGCC", "PBM E-score": -0.0525}, {"sequence": "CAAAGTCG", "PBM E-score": -0.148}, {"sequence": "AGTGGTAG", "PBM E-score": -0.171}, {"sequence": "GCGCGAAC", "PBM E-score": 0.148}, {"sequence": "ATGGTAGG", "PBM E-score": -0.137}, {"sequence": "AGTAGGGC", "PBM E-score": -0.0969}, {"sequence": "CCACCAGG", "PBM E-score": -0.109}, {"sequence": "ACCCTTTG", "PBM E-score": -0.0697}, {"sequence": "CGTTTTAC", "PBM E-score": -0.0906}, {"sequence": "AACGGGAT", "PBM E-score": 0.364}, {"sequence": "CTACGCCC", "PBM E-score": -0.12}, {"sequence": "CTATAAAC", "PBM E-score": -0.0124}, {"sequence": "TAGTTCGA", "PBM E-score": -0.0152}, {"sequence": "CACCCTAA", "PBM E-score": -0.0827}, {"sequence": "GCGCTCAA", "PBM E-score": -0.166}, {"sequence": "ATCACTGC", "PBM E-score": 0.101}, {"sequence": "CGCCTCCA", "PBM E-score": -0.00709}, {"sequence": "GAACGATC", "PBM E-score": 0.129}, {"sequence": "TCACTGGA", "PBM E-score": -0.042}, {"sequence": "CCTCCCGA", "PBM E-score": 0.103}, {"sequence": "CTACCCGC", "PBM E-score": 0.144}, {"sequence": "GTCTGTAA", "PBM E-score": 0.106}, {"sequence": "GGATGGAC", "PBM E-score": 0.0752}, {"sequence": "CATTCTGA", "PBM E-score": -0.0621}, {"sequence": "ACAGTTCA", "PBM E-score": -0.0281}, {"sequence": "GCGGACGC", "PBM E-score": 0.0542}, {"sequence": "CCCATTGC", "PBM E-score": -0.0113}, {"sequence": "ACAGGTAC", "PBM E-score": -0.14}, {"sequence": "TATCAGGA", "PBM E-score": -0.0558}, {"sequence": "CAAACATC", "PBM E-score": 0.0461}, {"sequence": "AACGCGCC", "PBM E-score": 0.107}, {"sequence": "AAATAGTT", "PBM E-score": 0.0906}, {"sequence": "ATGGTAAG", "PBM E-score": -0.102}, {"sequence": "GAAATTCC", "PBM E-score": 0.261}, {"sequence": "ACCTACAA", "PBM E-score": -0.0899}, {"sequence": "CTCGACTC", "PBM E-score": -0.113}, {"sequence": "AGAACGGG", "PBM E-score": 0.16}, {"sequence": "CTGAAAAA", "PBM E-score": -0.0962}, {"sequence": "CCTTATTC", "PBM E-score": -0.28}, {"sequence": "ACAACGTA", "PBM E-score": -0.125}, {"sequence": "ACACCGCC", "PBM E-score": 0.0577}, {"sequence": "GATCACAC", "PBM E-score": -0.0327}, {"sequence": "AGGGTTTC", "PBM E-score": -0.0822}, {"sequence": "CGGTTCCA", "PBM E-score": 0.248}, {"sequence": "GCTGTCAC", "PBM E-score": -0.211}, {"sequence": "CACTCTAG", "PBM E-score": -0.172}, {"sequence": "CCCGGAGG", "PBM E-score": 0.165}, {"sequence": "CTATCTAA", "PBM E-score": 0.00128}, {"sequence": "GCAGGCAA", "PBM E-score": -0.083}, {"sequence": "AGTCCAGG", "PBM E-score": -0.174}]}]}
